Experimental data published in PubChem BioAssay AID342 (DTP/NCI, 2004).
Some entries of the source have several records that differ or are many. This is not the full list of results. An entry can have further records. The records of an entry repeat one measurement (runs, samples, wells, individuals or studies).

Tested on: Swiss mice, Sarcoma 180 sc, mean tumor weight T/C
Experiment: NCI In Vivo Anticancer Drug Screen. Data for tumor model Sarcoma 180 (subcutaneous) in Swiss mice
Settings: endpoint: mean tumor weight, higher = larger tumour
In short: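 Antitumor activity is assessed in mice with transplantable tumors. Treated (T) and vehicle control (C) groups are compared on survival or tumor size.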

CC(=O)OCC(=O)[C@@]1(O)[C@H](C)C[C@H]2[C@@H]3C=C(C)C4=Cc5c(cnn5-c5ccc(F)cc5)C[C@]4(C)[C@H]3[C@@H](O)C[C@@]21C
T/C (dose: 1.0 mg/kg/injection, schedule: Q01DX007 (sc), vehicle: steriod suspending solution): 59 % of control and 85 % of control
T/C (dose: 1.5 mg/kg/injection, schedule: Q01DX007 (sc), vehicle: steriod suspending solution): 35 % of control, 38 % of control, 93 % of control

CCc1nc(N)nc(N)c1-c1ccc(Cl)c(Cl)c1.O.O.[Zn]
T/C (dose: 5.3 mg/kg/injection, schedule: Q01DX007 (ip), vehicle: carboxymethylcellulose (CMC)): 20 % of control and 49 % of control

Nc1nc(SCc2ccccc2)c2ncn(CCCl)c2n1
T/C (dose: 188.0 mg/kg/injection, schedule: Q01DX007 (ip), vehicle: carboxymethylcellulose (CMC)): 5 % of control and 73 % of control

CN(C)/N=N/c1nc[nH]c1C(N)=O
T/C (dose: 80.0 mg/kg/injection, schedule: Q01DX007 (ip), vehicle: carboxymethylcellulose (CMC)): 40 % of control and 78 % of control

O=[n+]1c2c(n([O-])c3ccccc31)-c1cccc3cccc-2c13
T/C (dose: 93.0 mg/kg/injection, schedule: Q01DX007 (ip), vehicle: carboxymethylcellulose (CMC)): 30 % of control, 51 % of control, 66 % of control
T/C (dose: 140.0 mg/kg/injection, schedule: Q01DX007 (ip), vehicle: carboxymethylcellulose (CMC)): 25 % of control, 38 % of control, 59 % of control

CC(=O)[C@H]1CC[C@H]2[C@@H]3C[C@H](F)C4=CC(=O)CC[C@]4(C)[C@@]3(F)[C@@H](O)C[C@]12C
T/C (dose: 56.0 mg/kg/injection, schedule: Q01DX007 (sc), vehicle: steriod suspending solution): 42 % of control and 83 % of control
T/C (dose: 84.0 mg/kg/injection, schedule: Q01DX007 (sc), vehicle: steriod suspending solution): 36 % of control and 72 % of control
T/C (dose: 125.0 mg/kg/injection, schedule: Q01DX007 (sc), vehicle: steriod suspending solution): 24 % of control, 32 % of control, 56 % of control
T/C (dose: 188.0 mg/kg/injection, schedule: Q01DX007 (sc), vehicle: steriod suspending solution): 26 % of control, 32 % of control, 72 % of control

CC1OC(OC2C(CO)OC(O[C@H]3CC[C@@]4(C)C(=CC[C@H]5[C@@H]6C[C@@H]7O[C@@]8(CC[C@H](C)CN8)[C@@H](C)[C@@H]7[C@@]6(C)CC[C@@H]54)C3)C(OC3OC(C)C(O)C(O)C3O)C2O)C(O)C(O)C1O (some centres not stated)
T/C (dose: 10.0 mg/kg/injection, schedule: Q01DX007 (ip), vehicle: saline): 55 % of control and 99 % of control
